# Assay results as given in article PMC6919601, “Identification of Plasmodium dipeptidyl aminopeptidase allosteric inhibitors by high throughput screening” (PLoS ONE, 2019).
# The campaign covered roughly 110,000 compounds. About 230 (0.21%) showed an effect of 50% or more. This is one part of the list.
# Biological target: DPAP1 (Plasmodium falciparum, UniProt Q8IIJ9)
# Assay: primary screen, percent inhibition; read by cleavage of a fluorogenic dipeptide substrate; higher = more effect of the substance
# Parameters: species or system P. falciparum D10 trophozoite lysates; single well
# 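Also: 30 min substrate incubation versus DMSO and 10 µM JCP410 controls.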
# Sequence of DPAP1 (Q8IIJ9 whole entry, looked up): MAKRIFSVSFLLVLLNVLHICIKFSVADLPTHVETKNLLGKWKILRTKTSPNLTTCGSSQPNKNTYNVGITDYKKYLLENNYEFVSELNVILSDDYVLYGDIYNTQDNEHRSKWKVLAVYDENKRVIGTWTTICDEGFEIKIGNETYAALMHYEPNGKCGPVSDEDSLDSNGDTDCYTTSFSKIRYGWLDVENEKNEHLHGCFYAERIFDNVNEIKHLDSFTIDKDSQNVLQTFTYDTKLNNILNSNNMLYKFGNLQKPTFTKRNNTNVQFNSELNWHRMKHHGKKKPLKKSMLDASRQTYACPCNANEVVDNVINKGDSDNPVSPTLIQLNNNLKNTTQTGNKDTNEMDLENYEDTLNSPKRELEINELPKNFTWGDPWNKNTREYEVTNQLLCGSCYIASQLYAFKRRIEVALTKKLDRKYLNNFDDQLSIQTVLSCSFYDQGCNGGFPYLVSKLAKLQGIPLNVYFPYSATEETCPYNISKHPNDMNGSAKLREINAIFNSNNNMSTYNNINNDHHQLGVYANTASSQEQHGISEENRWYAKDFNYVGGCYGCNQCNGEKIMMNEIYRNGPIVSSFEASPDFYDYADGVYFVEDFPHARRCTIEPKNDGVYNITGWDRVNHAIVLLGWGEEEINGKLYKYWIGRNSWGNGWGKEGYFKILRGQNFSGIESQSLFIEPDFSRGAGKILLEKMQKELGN
row,Compound,% Inhibition @ 10 uM [%]
1,CCN(CC)CCNC(=O)CCc1nnc2n(Cc3ccccc3)c(=O)c3ccccc3n12,-6.07
2,NC(=O)CSc1nnc(-c2cccs2)n1-c1cccc(C(F)(F)F)c1,-6.91
3,O=C(CN1C(=O)c2cccc3cccc(c23)C1=O)N1CCc2ccccc2C1,8.36
4,CCn1c(/C=C/c2c(C)n(C)c3ccccc23)nc2ccccc2c1=O,-1.2
5,CC1(NC(=O)NC2CCS(=O)(=O)C2)CCS(=O)(=O)C1 (stereo not drawn),-1.11
6,c1ccc(Oc2cccc(CN3CCN(Cc4ccncc4)CC3)c2)cc1,-5.26
7,CCc1c(-c2ccccc2)n(CCCO)c2nc3c(c(=O)n(C)c(=O)n3C)n12,0.121
8,CCC(=O)N1N=C(C(F)(F)F)CC1(O)c1ccc(F)cc1 (stereo not drawn),4.01
9,Cc1nn(C)c(C)c1CNC(=O)c1cc2n(n1)C(C(F)(F)F)CC(c1ccc3c(c1)OCO3)N2 (stereo not drawn),-0.62
10,Cc1cc(C)c(S(=O)(=O)N2CCN(S(=O)(=O)c3c(C)cc(C)cc3C)CC2)c(C)c1,-4.43
11,CCn1cc(C(=O)NCCN(C)C)c2cc(OC)c(OC)cc2c1=O,-4.06
12,O=C(Nc1ccccc1C(=O)Nc1ccc(Cl)cc1)c1ccccc1,1.15
13,CC1CCN(C(=O)/C=C\c2ccccc2)CC1,0.736
14,CCN1CCN(c2ncnc3c2cnn3-c2ccccc2)CC1,5.38
15,CN(C)CCN1C(=O)C(O)=C(C(=O)c2ccc(Cl)cc2)C1c1ccc(Br)cc1 (stereo not drawn),1.4
16,Cc1ccccc1CN1CCC(N2CCN(CCO)CC2)CC1,-9.16
17,CC(C)C[C@H](NS(=O)(=O)c1cccc2ccccc12)C(=O)N[C@@H](CCc1ccccc1)CS(=O)(=O)c1ccc2ccccc2c1,-5.64
18,COc1ccccc1Cn1c(NCCCO)nc2c1c(=O)n(C)c(=O)n2C,0.279
19,CCc1ccccc1NC(=S)NC(=O)c1ccc(Cl)cc1,1.35
20,c1ccc(CNC2CCc3ccccc3C2)nc1 (stereo not drawn),-3.6
21,Cc1cc(C)cc(N2C(=O)CC(N3CCCCC3)C2=O)c1 (stereo not drawn),2.75
22,O=C(/C=C/c1ccc(F)cc1)NC1CC1,2.16

row,Compound,% Inhibition @ 10 uM [%]
1,O=C(NCCNC(=O)C1CCCNC1=O)c1ccc(Cl)cc1 (stereo not drawn),-9.34
2,CN1CCN(CCc2nnc(S)n2-c2ccccc2)CC1,2.6
3,CC1=CC2=NC(=O)/C(=C\c3ccc(OCCOc4ccccc4)cc3)C(=N)N2O1,0.317
4,COCCOC(=O)C1=C(N)OC2=C(C(=O)CC(C)(C)C2)C1c1cccnc1 (stereo not drawn),4.86
5,COc1ccc(OC(C)C(=O)NCc2nc(-c3ccc(C)cc3)no2)cc1 (stereo not drawn),3.74
6,O=C(CC1Sc2ccc(C(F)(F)F)cc2NC1=O)Nc1ccccc1Cl (stereo not drawn),0.992
7,COC(=O)c1cc2cccc3c2n1CCS3,-5.37
8,CCSc1nc(-c2ccc(OC)cc2)cc(C(F)(F)F)c1C#N,-1.4
9,CC1(C)CC(=O)C2=C(C1)OC(c1cccs1)C(C#N)=C2N (stereo not drawn),-9.24
10,CCCCNC(=O)CS(=O)Cc1nc(-c2cccc(Cl)c2)oc1C (stereo not drawn),-4.71
11,CC1C(O)C(C)C(c2ccccc2)N(C)C1c1ccccc1 (stereo not drawn),2
12,COc1cccc(-c2nc3ccccc3[nH]2)c1,-0.546
13,CCOc1ccc(-n2c(CSc3nc(C)cc(C)n3)nnc2SCC(N)=O)cc1,-0.942
14,O=[N+]([O-])c1ccc2c(c1)C1C=CCC1C(c1ccccc1Cl)N2 (stereo not drawn),2.22
15,O=C(NCCCCCCNC(=O)N1CCCCC1)N1CCCCC1,4.33
16,CCc1c(C)sc(NC(=O)Nc2ccc(C)cc2)c1C(N)=O,2.05
17,CC(C)c1ccc(-c2c(C#N)c(N)nc3c2CCC3)cc1,-6.22
18,Cc1ccc(S(=O)(=O)c2cc3ccc(C)n3cn2)cc1,-1.24
19,COc1cc(OC)cc(-c2nc3nc(C)c(CCC(=O)NC(C)c4ccccc4)c(C)n3n2)c1 (stereo not drawn),1.26
20,COc1ccc(C(=O)N/C(=C\c2cccc3ccccc23)C(=O)Nc2cccc(C(C)=O)c2)cc1,-4.03
21,N#Cc1cc([N+](=O)[O-])cnc1NCCO,5
22,Cc1ccc(CN(C)CCc2ccccn2)cc1,3.47

row,Compound,% Inhibition @ 10 uM [%]
1,COc1ccc(Cl)cc1NC(=O)CSc1nc(C)cc(O)n1,-0.511
2,CCN(CC)CCN(CC)Cc1c(Cl)cccc1Cl,0.0792
3,Cc1nc2ccc(Br)cc2c(-c2ccccc2)c1C(=O)O,-4.32
4,CC1CCCC(NC(=O)CN2CCCN(Cc3ccc(F)cc3Cl)C2=O)C1C (stereo not drawn),2.35
5,c1nnnn1CCCN1CCOCC1,5.96
6,CC1CCCCN1C(=O)c1cc(-c2cccc(Cl)c2)on1 (stereo not drawn),-5.09
7,O=C(CCCn1c2ccccc2c2cnnc(O)c21)NCCC1=CCCCC1,-5.63
8,CC(=O)NCCc1c(C(=O)O)[nH]c2ccc(OCc3ccccc3)cc12,6.43
9,COc1cc(S(=O)(=O)N2CCN=C2c2ccccc2)ccc1Cl,-5.49
10,CN1C(=O)C(=Cc2cn(CC(=O)NCC3CCCO3)c3ccccc23)C(=O)N(C)C1=O (stereo not drawn),2.17
11,Cc1onc(-c2ccccc2)c1C(=O)NCc1cccnc1,1.28
12,COCCNc1ncnc2c1cnn2C,3.99
13,COC(=O)C1=C(O)/C(=C\c2cccc3ccccc23)N=C1C,5
14,CCc1nnc(NC(=O)CSc2ccc(-c3ccncc3)nn2)s1,2.75
15,COC(=O)c1cc2oc(C)cc2n1Cc1nc(-c2cccc(Br)c2)oc1C,-11.4
16,CC1=C(C(=O)Nc2ccc(F)cc2F)C(c2ccc(N(C)C)cc2)C2=C(O)CCCC2=N1 (stereo not drawn),-3.46
17,COc1ccc(OC)c(/C=C2/C=C(c3ccc(C)cc3)OC2=O)c1,-3.41
18,COCCn1c(CCC(=O)O)ccc1-c1ccc(C)cc1,-6.89
19,CCn1c(SC)nc2sc3c(c2c1=O)CCCC3,3.01
20,O=C(O)c1nccnc1C(=O)Nc1cccc2ccccc12,-2.18
21,COc1ccc(C2=N/C(=C\c3ccc(C)o3)C(=O)O2)cc1Br,11.4
22,CC(NC(=O)COc1ccc2ccccc2c1Br)c1ccccc1 (stereo not drawn),-3.25
